Laboratory results: US9034857B2 (Health Research, Inc., priority 2010, dated 2015)

Test system: growth arrest of stationary phase cells in G0/G1

CC(=O)N[C@@H](CS)C(=O)O [N-acetylcysteine]
G0/G1 arrest (Table 2 summary, stationary phase): ↓
fraction of cells with visible buds (wild type cells, day 3 of medium depletion): dose-dependent increase
